The source of these data is publication PMC4271846 (Journal of neuroscience research, 2008).

The assay has as its target purified nucleotide-free recombinant wild-type bovine hsc70 (bovine, UniProt P19120). Briefly: SPR.
UniProt P19120, sequence (P19120 whole entry): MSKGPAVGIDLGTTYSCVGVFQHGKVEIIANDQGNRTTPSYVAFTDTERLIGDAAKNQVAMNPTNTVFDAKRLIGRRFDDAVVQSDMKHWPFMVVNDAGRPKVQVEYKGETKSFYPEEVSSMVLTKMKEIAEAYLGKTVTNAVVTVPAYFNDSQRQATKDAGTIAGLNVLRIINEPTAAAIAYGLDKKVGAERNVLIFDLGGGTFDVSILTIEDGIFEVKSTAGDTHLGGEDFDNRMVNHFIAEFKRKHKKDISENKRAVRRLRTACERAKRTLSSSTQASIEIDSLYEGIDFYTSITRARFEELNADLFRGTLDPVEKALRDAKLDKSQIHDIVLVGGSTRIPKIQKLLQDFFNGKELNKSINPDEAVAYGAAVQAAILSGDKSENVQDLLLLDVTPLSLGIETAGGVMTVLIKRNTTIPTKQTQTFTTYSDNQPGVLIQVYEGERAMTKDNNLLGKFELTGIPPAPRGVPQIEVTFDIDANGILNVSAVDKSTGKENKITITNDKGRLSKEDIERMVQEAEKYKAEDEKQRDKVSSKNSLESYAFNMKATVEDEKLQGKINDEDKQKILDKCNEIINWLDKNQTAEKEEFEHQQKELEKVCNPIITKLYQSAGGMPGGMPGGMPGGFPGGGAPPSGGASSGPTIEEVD

B1: recombinant human wild-type 4R tau (0N4R), untagged (natural protein)
chain: not shown
Turning to B1, the Kd amounted to 160 nM, the off-rate constant (koff) was 0.00344 s⁻¹ and the on-rate (kon) was 21600 M⁻¹ s⁻¹.
